# Laboratory results reported in PubChem BioAssay AID488969 (Vanderbilt High Throughput Screening Facility, 2010).
# Whole data set: some 110,000 compounds, median “z-score” near -0.1, cut for the highest 2% near 2. The list shows a part of the results. Activity calls are given as the source filed them.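 How the source made its calls: active means z-score in the third read window above 3 or below -3; inactive means the rest.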
# Target: Metabotropic glutamate receptor 8 (Rattus norvegicus) (UniProt P70579)
# Assay: mGluR8 Gi/Go-coupled signaling modulation – cell-based, rat, thallium flux, HTS, primary screen (AID 488969)
# Conditions: HEK293 rat mGluR8, GIRK (G protein-gated inwardly rectifying potassium channel) thallium flux, FluoZin2; at 10 µM; stronger effect = higher value; submaximal glutamate (EC20) added with thallium
# UniProt P70579, sequence (P70579 whole entry, looked up): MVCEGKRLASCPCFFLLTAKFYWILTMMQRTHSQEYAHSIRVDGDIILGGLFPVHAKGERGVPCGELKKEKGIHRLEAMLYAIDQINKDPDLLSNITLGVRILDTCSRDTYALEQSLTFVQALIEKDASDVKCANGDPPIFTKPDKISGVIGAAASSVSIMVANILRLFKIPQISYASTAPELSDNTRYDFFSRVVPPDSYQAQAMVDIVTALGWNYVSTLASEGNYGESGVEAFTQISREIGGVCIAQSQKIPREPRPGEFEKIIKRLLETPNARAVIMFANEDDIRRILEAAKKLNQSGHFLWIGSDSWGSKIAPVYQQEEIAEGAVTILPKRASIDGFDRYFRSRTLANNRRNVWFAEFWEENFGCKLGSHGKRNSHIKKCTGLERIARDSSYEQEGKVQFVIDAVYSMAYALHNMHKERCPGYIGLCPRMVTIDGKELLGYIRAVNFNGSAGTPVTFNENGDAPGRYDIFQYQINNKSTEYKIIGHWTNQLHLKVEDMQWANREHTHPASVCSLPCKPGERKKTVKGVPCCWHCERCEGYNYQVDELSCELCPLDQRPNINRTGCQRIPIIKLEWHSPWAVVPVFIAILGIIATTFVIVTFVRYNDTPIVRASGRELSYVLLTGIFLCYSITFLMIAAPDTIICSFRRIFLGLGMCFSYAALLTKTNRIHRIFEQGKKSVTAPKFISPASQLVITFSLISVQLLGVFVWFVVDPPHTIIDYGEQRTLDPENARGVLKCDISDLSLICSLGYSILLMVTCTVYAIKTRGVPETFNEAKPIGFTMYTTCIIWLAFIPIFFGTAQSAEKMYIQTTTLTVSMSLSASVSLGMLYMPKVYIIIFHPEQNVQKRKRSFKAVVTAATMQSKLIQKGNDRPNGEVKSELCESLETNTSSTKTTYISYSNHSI
row,Compound,z-score
1,C/C(=N/NC(=O)c1ccoc1C)c1cccc(NC(=O)C2CC2)c1,-0.503
2,COc1cc(/C=N/n2cnnc2)ccc1OS(=O)(=O)c1ccccc1[N+](=O)[O-],-0.365
3,O=C(Nc1ccc(Cl)cc1)N(C1=NCCC1)c1ccc(OC(F)F)cc1,0.798
4,COCCNC(=O)c1onc(CSc2ccccc2C)c1C(=O)O,-0.0186
5,O=C(Nc1nccs1)c1cc(-c2ccccc2)nc2ccccc12,-0.659
6,COCCN(C(=O)CNC(=O)c1ccco1)C(C(=O)NC1CCCC1)c1cccs1 (centres undefined),-0.163
7,COc1cc(SC#N)ccc1N=Cc1c(C)[nH]n(-c2ccc(Cl)cc2)c1=O,-0.12
8,CC(=O)NNC(=O)c1ccncc1,0.258
9,CCOC(=O)Cn1c(CN2CCN(C(c3ccccc3)c3ccccc3)CC2)nc2c1c(=O)n(C)c(=O)n2C,-0.899
10,COc1cc(NS(=O)(=O)c2ccc(NC(=O)COc3ccc(C)cc3)cc2)nc(OC)n1,-0.0517
11,COc1ccc(N=CC2=C(O)CC(c3ccccc3)CC2=O)c(OC)c1 (centres undefined),-0.641
12,Cc1onc(-c2ccccc2Cl)c1C(=O)Nc1nnc(-c2ccc(F)cc2)s1,0.78
13,COc1ccccc1-n1nnnc1SCc1cc2c(cc1Br)OCO2,0.011
14,CCn1cc(SCC(=O)Nc2cc(C)on2)c2ccccc21,-0.0523
15,CCCCc1noc2c1/C(=N\O)CC(c1ccccc1)C2 (centres undefined),0.279
16,C[C@@H](C(=O)N[C@H](C(=O)O)c1ccccc1)n1nnc2ccccc2c1=O,-0.457
17,CN1CCN(C(=O)/C=C\C(=O)O)CC1,-0.187
18,CCC(CC)C(=O)Nc1cccc(/C(C)=N\NC(=O)c2ccc(C)s2)c1,-0.252
19,CCCCCCN1N=C(C)C(C(=O)c2ccc(Cl)cc2)C1=O (centres undefined),0.521
20,CCOc1ccc(NC(=O)CCS(=O)(=O)c2ccc3c(c2)CCCN3C(=O)CC)cc1,-0.371
21,COc1cc2c(cc1NC(=O)COc1ccc3ccccc3c1)oc1ccccc12,-0.183
22,O=C(NC(=S)NCc1ccc2c(c1)OCO2)c1ccccc1,1.1
23,Cn1c(=O)c2c(nc(SCCN3CCOCC3)n2Cc2ccccc2)n(C)c1=O,0.168

row,Compound,z-score
1,Cc1ccc(CN2CCN(/N=C/c3ccco3)CC2)c(C)c1,-0.87
2,CCCn1c(N)c(C(=O)CSc2nnc(Cc3ccccc3)o2)c(=O)n(C)c1=O,0.262
3,O=C(OCCN1CCN(c2ncc(C(F)(F)F)cc2Cl)CC1)c1ccc(F)cc1,0.0101
4,CCn1c(CC(=O)Nc2ccc(Cl)c(Cl)c2)nnc1SCc1ccc(Cl)cc1,0.171
5,COc1ccc(NC(=O)CSc2ncn(-c3ccccc3)n2)cc1Cl,-0.728
6,NC(=O)c1ccccc1NC(=S)NC(=O)CCc1ccccc1,-0.237
7,O=C(NCc1ccc(F)cc1)C(=O)NCC1OCCN1C(=O)c1cccs1 (centres undefined),-0.139
8,Cc1cc(C)n2cc(CSc3nc4ccccc4[nH]3)nc2n1,-0.0877
9,O=C(COc1ccccc1)Nc1sc2c(c1C(=O)NCc1cccnc1)CCCC2,-0.764
10,Cc1nonc1NC(=O)c1ccccc1Br,0.549
11,O=C(NNC(=O)C1CC1c1ccccc1)Nc1cccc(Cl)c1 (centres undefined),-0.494
12,C/C(=N/NC(=O)CSCc1ccc(Cl)cc1)c1cccc(NC(=O)c2ccccc2)c1,-0.135
13,CCOC(=O)N1CCC(NC(=O)CCc2nc(-c3ccccc3F)no2)CC1,-0.079
14,Fc1c(F)c(F)c(CSc2nc3ccccc3[nH]2)c(F)c1F,-0.953
15,CSc1nc(Sc2ccccc2)c2ccccc2n1,active: 4.56
16,CC1(C(=O)N(c2ccccc2)C(C(=O)NC2CCCC2)c2ccccn2)CC(=O)N=C2C=CC=CN21 (centres undefined),-0.234
17,C1CCN(c2c3c(nc4nnnn24)CCCC3)CC1,-0.00581
18,CS(=O)(=O)N1CCc2cc(S(=O)(=O)N3CCN(Cc4ccc5c(c4)OCO5)CC3)ccc21,0.0585
19,Nc1cc(-c2ccc(Cl)cc2)nn1S(=O)(=O)c1ccccc1,-0.106
20,CCOc1ccc(C(CC(=O)O)NC(=O)c2ccco2)cc1 (centres undefined),-0.274
21,Cc1ccc(N(CC(=O)NCc2ccco2)S(=O)(=O)c2ccccc2)cc1,0.374
22,COc1ccc(-c2nc(NC(=O)c3ccc(OCC(=O)N4CCOCC4)c(OC)c3)sc2C)cc1,-0.218
23,Cc1ccccc1N(CC(=O)NCC1CCCO1)C(=O)C1(C)CC(=O)N=C2C=CC=CN21 (centres undefined),-0.358

row,Compound,z-score
1,CCOC(=O)c1c(C2CC2)csc1NC(=O)COC(=O)c1ccc[n+]([O-])c1,-0.472
2,COC(=O)Nc1ccc(S(=O)(=O)N2CCCC(C(=O)Nc3cccc4c3OCCO4)C2)cc1 (centres undefined),-1.14
3,Cc1ccc2cc(CN(CC3CCCO3)C(=S)NCc3ccco3)c(=O)[nH]c2c1C (centres undefined),-0.303
4,Cc1ccccc1OCCNC(=O)CNC(=O)c1ccccc1O,0.335
5,C=CCn1c(-c2cc(OC)c(OC)c(OC)c2)n[nH]c1=S,0.16
6,Cc1ccc2c(c1)c1c3n2CC(=C2C(=O)OC(C)(C)OC2=O)NC3CCC1 (centres undefined),-0.111
7,CCOc1ccccc1OCCOc1cccc(C(F)(F)F)c1,-0.315
8,CC1CCC2(CC1)NC(=O)N(CC(=O)c1ccc[nH]1)C2=O (centres undefined),0.214
9,Cc1ccc(C)c(NC(=O)Cc2csc(-c3ccccc3)n2)c1,-0.0885
10,CCC(=O)Nc1cccc(NC(=S)NC(=O)c2cccs2)c1,-0.0637
11,O=C(CNc1ccccc1)N/N=C/c1cn(-c2ccccc2)nc1-c1ccccc1,-0.0559
12,CCNC(=O)c1c(N)sc2c1CCCCC2,-0.0864
13,COc1ccnc(N2CCN(c3cccc(C(F)(F)F)c3)CC2)c1C#N,-0.298
14,CN1CCN(c2nc3c(c(=O)[nH]c(=O)n3C)n2CCCSc2ncccn2)CC1,-0.549
15,CCc1ccc2[nH]c(=O)c(C(c3nnnn3Cc3ccco3)N3CCC(C)CC3)cc2c1 (centres undefined),-0.27
16,COc1cc(/C=C(\C#N)c2[nH]nc(N)c2C#N)cc(OC)c1O,0.353
17,CN1CCN(NC(=O)c2ccccc2F)CC1,-0.0659
18,COc1ccc2c(c1)cc1n2CCN2CCCN=C12,-0.172
19,CC(C)C(=O)N1CCN(c2ccc(NC(=O)c3cccs3)cc2)CC1,-0.0556
20,Cn1nc([N+](=O)[O-])nc1N1CCN(c2ccc(F)cc2)CC1,-0.0347
21,Cc1ccccc1N1CCN(C(=O)c2ccccc2NC(=O)/C=C\C(=O)O)CC1,-0.319
22,O=C(CN1CCC(c2nc3ccccc3s2)CC1)NCc1cccs1,-0.352
23,Clc1cccc(/C=N/Nc2nnc(Cl)c3ccccc23)c1,0.178
